Biological target: the molecule itself
Assay: native MS; non-activating native electrospray on a Q Exactive UHMR; 200 mM ammonium acetate pH 6.9; 5 μM ADH, 10 μM β-gal, 8 μM ferritin, 5 μM GroEL (concentrations of the most abundant oligomers)

B1: β-galactosidase (enzyme)
chain: not shown
notes: β-galactosidase (β-gal), Sigma Aldrich G3153-5MG; tetramer with a mass of 466 kDa; source: bought: Sigma Aldrich (G3153-5MG), used without further purification; desalted into 200 mM ammonium acetate
- stoichiometry N: 4

Source: paper PMC9641999, “Cryo-EM samples of gas-phase purified protein assemblies using native electrospray ion-beam deposition” (Faraday discussions, 2022)
